# Source: the supplement of paper PMC6135742
# Where a name gives a salt, the structure may show the parent alone. ± gives the standard deviation of the averaged measurements. In all, about 2,600 compounds were measured (“MBP+ mature oligodendrocyte number relative to DMSO vehicle control”: median about -0.34, highest 2% from about 13 on). The list shows a part of the results.
# Test system: jimpy (Plp1 jimpy) mouse iPSC-derived oligodendrocyte progenitor cells
# Assay: MBP+ mature oligodendrocyte number relative to DMSO vehicle control (SDs above negative control mean); higher = more surviving jimpy oligodendrocytes (rescue)
# Settings: 10 µM; 3 days
# 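Further: 10 µM single dose with 3-day oligodendrocyte differentiation.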
row,Structure (SMILES),MBP+ mature oligodendrocyte number
1,NCC1(CC(=O)O)CCCCC1 [Gabapentin],0.659
2,O=c1cccc2n1C[C@@H]1CNC[C@H]2C1 [Cytisine],-1.51
3,CCOC(=O)c1cncn1[C@H](C)c1ccccc1 [Etomidate],-0.589
4,CCN1CCN(C(=O)Cc2ccc(Nc3ncc(F)c(Nc4ccc(C(=O)Nc5ccccc5Cl)cc4)n3)cc2)CC1 [Aurora A Inhibitor I],-6.52
5,CC(O)(CS(=O)(=O)c1ccc(F)cc1)C(=O)Nc1ccc(C#N)c(C(F)(F)F)c1 (stereo not drawn) [Bicalutamide],3.77
6,CC(O)(CS(=O)(=O)c1ccc(F)cc1)C(=O)Nc1ccc(C#N)c(C(F)(F)F)c1 (stereo not drawn) [Bicalutamide (CDX)],1.86
7,"CN1CCc2cc3c(cc2C1C1OC(=O)c2c1ccc1c2OCO1)OCO3 (single isomer, unassigned; (+)) [(+)-Bicuculline]",1.84
8,Cc1ncsc1CCCl [Chlormethiazole hydrochloride],-0.119
9,CCC1(c2ccc(N)cc2)CCC(=O)NC1=O (racemic) [(±)-p-Aminoglutethimide],-0.433
10,CN1[C@@H]2C[C@@H](OC(=O)[C@H](CO)c3ccccc3)C[C@H]1[C@@H]1O[C@@H]12 [Scopolamine HBr],2.3
11,CN1[C@@H]2C[C@@H](OC(=O)[C@H](CO)c3ccccc3)C[C@H]1[C@@H]1O[C@@H]12 [(-)-Scopolamine hydrobromide],0.146
12,CN(C)CCc1ccc(O)cc1 [Hordenine],0.507
13,CC(=O)[C@H]1CC[C@H]2[C@@H]3CC[C@H]4C[C@](C)(O)CC[C@]4(C)[C@H]3CC[C@]12C [Ganaxolone],0.189
14,COC1=C[C@@H]2[C@@H]3Cc4ccc(OC)c(O)c4[C@]2(CCN3C)CC1=O [Sinomenine],-0.724
15,C/C(=C\c1csc(C)n1)[C@@H]1C[C@@H]2O[C@@H]2CCC[C@H](C)[C@H](O)[C@@H](C)C(=O)C(C)(C)[C@@H](O)CC(=O)O1 [Epothilone A],-2.95
16,CO[C@H]1CC[C@@H](O[C@H]2C[C@H]([C@]3(C)CC[C@]4(C[C@H](O)[C@@H](C)[C@@H]([C@@H](C)/C=C(\C)C(=O)[C@H](C)C[C@H](C)C(=O)O)O4)O3)O[C@]3(O[C@@H]([C@H]4O[C@@](O)(CO)[C@H](C)C[C@@H]4C)C[C@@H]3C)[C@@H]2C)O[C@@H]1C [Nanchangmycin],< -6.7
17,[O-][n+]1ccccc1[S-].[O-][n+]1ccccc1[S-].[Zn+2] [Zinc Pyrithione],< -6.35
18,N[C@@H]1C[C@H]1c1ccccc1 [Tranylcypromine (2-PCPA) HCl],-1.79
19,N[C@@H]1C[C@H]1c1ccccc1 [Tranylcypromine hydrochloride],-0.961
20,NCC(CC(=O)O)c1ccc(Cl)cc1 (racemic) [(±)-Baclofen],0.0385

row,Structure (SMILES),MBP+ mature oligodendrocyte number
1,Cn1c(CCCC(=O)O)nc2cc(N(CCCl)CCCl)ccc21 [Bendamustine HCl],-1.46
2,Cn1c(CCCC(=O)O)nc2cc(N(CCCl)CCCl)ccc21 [Bendamustine hydrochloride],0.973
3,O=C1CC[C@@]2(O)[C@H]3Cc4ccc(O)c5c4[C@@]2(CCN3CC2CC2)[C@H]1O5 [Naltrexone hydrochloride],1.56
4,O=C1CC[C@@]2(O)[C@H]3Cc4ccc(O)c5c4[C@@]2(CCN3CC2CC2)[C@H]1O5 [Naltrexone HCl],1.51
5,"CN1CC[C@@]2(C)c3cc(O)ccc3N(C)C12 (single isomer, unassigned; (-)) [(-)-Eseroline fumarate]",-1.28
6,CC(C)[C@]12O[C@H]1[C@@H]1O[C@]13[C@]1(O[C@H]1C[C@H]1C4=C(CC[C@@]13C)C(=O)OC4)[C@@H]2O [Triptolide (PG490)],< -6.01
7,CC(=O)[C@H]1CC[C@H]2[C@@H]3CC[C@H]4C[C@H](O)CC[C@]4(C)[C@H]3CC[C@]12C [5alpha-Pregnan-3alpha-ol-20-one],1.97
8,CC(C)(C)c1cc(C=C(C#N)C#N)cc(Br)c1O,0.72
9,Oc1ccc2c3c1O[C@H]1c4[nH]c5ccccc5c4C[C@@]4(O)[C@@H](C2)N(CC2CC2)CC[C@]314 [Naltrindole hydrochloride],-3.77
10,N[C@]1(C(=O)O)CC[C@H](C(=O)O)C1 (racemic) [trans-(±)-ACPD],0.981
11,CC(NC(C)(C)C)C(=O)c1cccc(Cl)c1 (stereo not drawn) [Bupropion hydrochloride],0.588
12,CC(NC(C)(C)C)C(=O)c1cccc(Cl)c1 (stereo not drawn) [Amfebutamone HCl],1.68
13,CN1CCCCC1Cn1cc(C(=O)c2cc([N+](=O)[O-])ccc2I)c2ccccc21 (stereo not drawn),-4.97
14,COC(=O)N1CCN(C(=O)Cc2ccc(Cl)c(Cl)c2)C(CN2CCCC2)C1 (stereo not drawn),-0.91
15,CC(C)NC(C)Cc1ccc(I)cc1 (stereo not drawn) [Iofetamine hydrochloride],7.44
16,O=c1ccc2cc(O[C@@H]3O[C@H](CO)[C@@H](O)[C@H](O)[C@H]3O)c(O)cc2o1 [Esculin],0.955
17,N=C(NCCC[C@H](N)C(=O)O)N[N+](=O)[O-] [NG-Nitro-L-arginine],-0.676
18,c1ccc2c(c1)Nc1ccccc1S2 [Phenothiazine],5.9
19,CCCN(CCC)C1Cc2cc(OC)c(OC)cc2C1,3.47
20,O=C1C=CC[C@@H]2[C@H]3CCCN4CCC[C@@H](CN12)[C@@H]34 [Sophocarpine],1.4

row,Structure (SMILES),MBP+ mature oligodendrocyte number
1,CC(=O)O[C@H]1C[C@@H]2CC[C@@H]3[C@H](CC[C@@]4(C)[C@H]3C[C@H]([N+]3(C)CCCCC3)[C@@H]4OC(C)=O)[C@@]2(C)C[C@@H]1[N+]1(C)CCCCC1 [Pancuronium bromide],-0.206
2,CC(=O)O[C@H]1C[C@@H]2CC[C@@H]3[C@H](CC[C@@]4(C)[C@H]3C[C@H]([N+]3(C)CCCCC3)[C@@H]4OC(C)=O)[C@@]2(C)C[C@@H]1[N+]1(C)CCCCC1 [Pancuronium dibromide],0.171
3,O=C(NCC1CCOCC1)c1cnc(Nc2ccc(Cl)cc2Cl)nc1C(F)(F)F,3.28
4,COC(=O)[C@@H](N)CCCNC(=N)N[N+](=O)[O-] [NG-Nitro-L-arginine methyl ester hydrochloride],0.304
5,C[C@@H]1O[C@H](C[N+](C)(C)C)C[C@H]1O (racemic) [(±)-Muscarine chloride],-0.245
6,CP(=O)(O)C1=CCNCC1,0.217
7,Cn1cc(C2=C(c3cn(C4CCN(Cc5ccccn5)CC4)c4ccccc34)C(=O)NC2=O)c2ccccc21,-5.04
8,NC(=O)c1cc(N2CC2)c([N+](=O)[O-])cc1[N+](=O)[O-],-2.2
9,C=CCN1CC[C@]23c4c5ccc(O)c4O[C@H]2C(=O)CC[C@@]3(O)[C@H]1C5 [Naloxone hydrochloride],-0.049
10,C=CCN1CC[C@]23c4c5ccc(O)c4O[C@H]2C(=O)CC[C@@]3(O)[C@H]1C5 [Naloxone HCl],1.77
11,C[C@@H]1CC[C@@]2(OC1)O[C@H]1C[C@H]3[C@@H]4CC=C5C[C@@H](O[C@@H]6O[C@H](CO)[C@@H](O[C@@H]7O[C@@H](C)[C@H](O)[C@@H](O)[C@H]7O)[C@H](O)[C@H]6O[C@@H]6O[C@@H](C)[C@H](O)[C@@H](O)[C@H]6O)CC[C@]5(C)[C@H]4CC[C@]3(C)[C@H]1[C@@H]2C [Dioscin],< -4.81
12,CN1CC[C@]2(CCN3CCc4c(oc5ccccc45)[C@@H]3C2)N(C)C1=O,1.72
13,Cc1cccc(Cc2c[nH]cn2)c1C [Detomidine HCl],10.2
14,N#CC(C#N)=Cc1ccc(O)c(O)c1 [Tyrphostin 23],-0.854
15,"COc1ccc2[nH]c3c(c2c1)CCNC3 [6-Methoxy-1,2,3,4-tetrahydro-9H-pyrido[3,4b] indole]",-0.315
16,CC[C@@H](C(=O)[C@@H](C)[C@@H](O)[C@H](C)[C@@H]1O[C@@H]([C@@H](CC)C(=O)O)CC[C@@H]1C)[C@H]1O[C@]2(C=C[C@@H](O)[C@]3(CC[C@@](C)([C@H]4CC[C@](O)(CC)[C@H](C)O4)O3)O2)[C@H](C)C[C@@H]1C [Salinomycin],< -4.81
17,Cc1cccc(C)c1NC(=O)CN1CCCC1=O [Nefiracetam],0.839 ± 0.7
18,NC(=O)CI [Iodoacetamide],-2.17
